# Data taken from PubChem BioAssay AID485281 (National Center for Advancing Translational Sciences (NCATS), 2010).
# Out of some 350,000 compounds screened, about 260 (0.074%) were called active. This list was built around the results that the source calls inconclusive (neither active nor inactive); the mix of calls is not that of the screen. The call rests on the fitted dose curve; in most records, active means well fitted inhibition curve with a large enough effect; inconclusive means small, poorly fitted or top-dose-only effect; inactive means no such curve, though single readings can be large or run the other way. Potencies beside an inconclusive call are fits to weak or partial responses and may not hold up.
# Target: Ferritin light chain (Equus caballus) (UniProt P02791)
# Assay: qHTS Assay for Identification of Novel General Anesthetics; further: nearly all actives have a fitted effect of over 20% in size
# Settings: apoferritin/1-aminoanthracene competitive binding, fluorescence; series mostly up to 77.5 µM
# Procedure, shortened: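 10 uM apoferritin + 50% sat. 1-AMA, PBS; cpd 10 min RT; Ex380/Em535 endpoint; normalized to free probe vs complex; 4-param Hill fit; propofol titration as pos. ctrl.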
# Potency means the concentration at half of the fitted maximal effect; tags describe the fitted curve by direction and shape.
# Chain of UniProt P02791 (P02791 whole entry, looked up): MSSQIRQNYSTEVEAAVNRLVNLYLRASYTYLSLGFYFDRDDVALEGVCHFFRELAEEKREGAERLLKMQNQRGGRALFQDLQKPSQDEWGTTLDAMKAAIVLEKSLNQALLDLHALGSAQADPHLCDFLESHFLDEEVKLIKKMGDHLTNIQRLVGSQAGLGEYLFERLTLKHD
row,SMILES,Potency
1,Cc1cc2ccccn2c1C(=O)c1nc(N2CCOCC2)ncc1Cl,"inconclusive: 22.4 µM [inhibitor, partial curve]"
2,CN(C)c1ccc(N=C/C=C2\N(C)c3ccccc3C2(C)C)cc1,"inconclusive: 35.5 µM [inhibitor, partial curve]"
3,C=CCn1c(CNc2ccccc2)nnc1SCC(=O)N/N=C/c1ccc(O)cc1O,"inconclusive: 39.8 µM [inhibitor, single point]"
4,COc1cccc(NC(=O)c2ccc(S(=O)(=O)N3CCCC3)cc2)c1,inactive
5,COc1ccc(/C=N/NC(=O)CNC(=O)/C=C/c2ccccc2OC)cc1,"inconclusive: 35.5 µM [inhibitor, single point]"
6,CCOC(=O)c1ccc2nc(NC(=O)C(C)C)sc2c1,inactive
7,O=C(COC(=O)CSCC(=O)N1CCCCC1)Nc1ccc(Cl)cc1,"inconclusive: 12.6 µM [inhibitor, partial curve]"
8,O=C(Cc1ccccc1F)NC1CCCN(Cc2ccc(Cl)cc2)C1 (stereo unspecified),"inconclusive: 28.2 µM [inhibitor, single point]"
9,O=C(CC(=O)NN=C1CCCC1)NCCc1ccccc1,"inconclusive: 22.4 µM [inhibitor, partial curve]"
10,C/C(=N\O)c1ccc(N2C(=O)C3CC=C(Cl)CC3C2=O)cc1 (stereo unspecified),"inconclusive: 35.5 µM [inhibitor, single point]"
11,Cc1nn(Cc2ccc(C(=O)Nc3ccccc3F)cc2)c(C)c1Cl,"inconclusive: 31.6 µM [inhibitor, partial curve]"
12,Cc1ccc(CC(=O)Nc2nc3ccccc3s2)cc1,"inconclusive: 31.6 µM [inhibitor, partial curve]"
13,Cc1cc(OCC(=O)Nc2ccc(S(=O)(=O)N3CCN(C)CC3)cc2)ccc1Cl,"inconclusive: 28.2 µM [inhibitor, single point]"
14,Cc1cc(C)n(Cc2cccc(F)c2)c(=O)c1C#N,"inconclusive: 25.1 µM [inhibitor, partial curve]"
15,Fc1ccccc1Nc1ncnc2c1nnn2Cc1ccccc1,"inconclusive: 56.2 µM [inhibitor, single point]"
16,COc1ccc(-c2cc(C(F)(F)F)c3c(N)c(C(=O)NCCSC)sc3n2)cc1,inactive
17,Cc1cccc(C2=NN(c3ccccc3)[C@@H](C(=O)N3CCOC3=O)[C@@H]2c2ccc(F)cc2)c1,inactive
18,O=[N+]([O-])c1ccccc1S(=O)(=O)N1CCN(Cc2ccccc2)CC1,"inconclusive: 44.7 µM [inhibitor, single point]"
19,Cc1nc2ncnn2c(C)c1CCC(=O)Nc1ccc(S(=O)(=O)N2CCCCCC2)cc1,"inconclusive: 28.2 µM [inhibitor, partial curve]"
20,CC[n+]1ccc(/C=C/c2ccc(N(C)C)cc2)c2ccccc21,"inconclusive: 14.1 µM [inhibitor, partial curve]"
21,COc1cccc(C(=O)CN2C(=O)C(C)(C)Oc3ccc(C(=O)N4CCCCCC4)cc32)c1,"inconclusive: 56.2 µM [inhibitor, partial curve]"

row,SMILES,Potency
1,COc1ccc(S(=O)(=O)NCCc2ccc(F)cc2)cc1,"inconclusive: 50.1 µM [inhibitor, single point]"
2,COCCCNC(=O)NC(CCC(C)C)c1c(-n2cccc2)sc2c1CCN(C)C2 (stereo unspecified),"inconclusive: 39.8 µM [inhibitor, single point]"
3,Cc1ccc(-n2ncc3c(NCc4ccco4)ncnc32)cc1C,"inconclusive: 28.2 µM [inhibitor, partial curve]"
4,COc1cc(-c2nc(-c3ccc4c(c3)-c3ccccc3S4(=O)=O)c(-c3ccccc3)[nH]2)cc(OC)c1O,"inconclusive: 50.1 µM [inhibitor, partial curve]"
5,Cc1ccc(CSC2=Nc3sccc3C3=NC(=O)CN23)cc1,"inconclusive: 31.6 µM [inhibitor, partial curve]"
6,COc1cc(/C=C2/C(=O)NN(c3cccc(F)c3)C2=O)ccc1OC(=O)c1ccco1,inactive
7,Cc1nnc(C)n1-c1ccc(C(=O)Nc2cccc(Br)c2)cc1,"inconclusive: 44.7 µM [inhibitor, single point]"
8,COc1cccc(-c2ccc(NC(=O)C3CCCN(Cc4cnn(C(C)C)c4)C3)cc2)c1 (stereo unspecified),"inconclusive: 28.2 µM [inhibitor, partial curve]"
9,CC(C)(C)C(=O)Nc1ccc(C(=O)N/N=C/c2ccccc2OC(=O)c2ccc(Cl)cc2Cl)cc1,"inconclusive: 35.5 µM [inhibitor, partial curve]"
10,O=C(/C=C/c1ccc(Cl)cc1Cl)NCc1ccco1,"inconclusive: 25.1 µM [inhibitor, single point]"
11,O=C(Nc1nnc(SCCC2OCCO2)s1)C1CC(=O)N(c2ccccc2)C1 (stereo unspecified),"inconclusive: 25.1 µM [inhibitor, single point]"
12,O=C(CN1C(=O)C2C3C=CC(C3)C2C1=O)N1CC=C(c2ccccc2)CC1 (stereo unspecified),"inconclusive: 39.8 µM [inhibitor, partial curve]"
13,CCOC(=O)c1cnc(SCC(=O)c2ccc3c(c2)OCCO3)nc1N,"inconclusive: 25.1 µM [inhibitor, partial curve]"
14,CCC(CC)COC(=O)C1=C(C)NC(=O)NC1c1cccc([N+](=O)[O-])c1 (stereo unspecified),"inconclusive: 35.5 µM [inhibitor, partial curve]"
15,Cc1ccc(-n2ncc3c(SCc4ccccn4)ncnc32)c(C)c1,"inconclusive: 39.8 µM [inhibitor, partial curve]"
16,COc1cccc(-c2noc(C3CCCN(C(=O)c4ccc(F)cc4)C3)n2)c1 (stereo unspecified),"inconclusive: 35.5 µM [inhibitor, single point]"
17,O=C(NCC1CCOCC1)c1cc(COc2cccc(C(F)(F)F)c2)on1,"inconclusive: 35.5 µM [inhibitor, single point]"
18,C=CCn1c(SCC(=O)O)nnc1-c1ccc(C(C)(C)C)cc1,inactive
19,O=C(CCCCCN1C(=O)c2ccccc2C1=O)Nc1nccs1,"inconclusive: 35.5 µM [inhibitor, partial curve]"
20,CCc1ccc(CNc2ccc3c(c2)ncn3CC)cc1,inactive
